Assay results reported in the RNAGym collection of RNA variant scans (doi:10.7554/elife.90254).
The source gives no read counts; variants with many changes may rest on few reads.

B1: OR4K15 (parent)
chain: GUUAACGGUCAUAGGCCAUGGAAACUAGGAGCACCAUUUCGCUGCCAGUGAAGAAAUGAACAAAGAAAAUCUGGGCCAGGCAGGCAUCAAAAGAAAUAGUCUUGCGCUCAACCAGAAAGUCUGUAAUCAUUUUAAGGGUA

Variants of: B1
Test: self-cleavage, relative activity (ratio to wild type); higher = more cleavage; in vitro, sequencing; the parent is a self-cleaving ribozyme

| Variant | self-cleavage |
| --- | --- |
| GUUAACGGUCAUAGGCCACGGAAACUAGGAGCACCAUUUCGCGGCCAGUGGAGAAAUGAACAAAGAAAAUCUGGGCCGGGCAGGCGCCAAAAGAAAUAGUCUUGCGCUCAACCAGAAAGUCUGUAAUCAUUCUAAGGGUA | 0.09 |
| GUUAACGGUCAUAGGCCACGGAAACUAGGAGCACCAUUUCGCUGCCAGUGAAGAAAUGAACAAAGAAAAUCUGGGCCAGGCAAGCUUCAAAAGAAAUAGUCUUGCGCUCAACCAGAGAGUCUGUAAUCAUUUUAAGGGUA | 2.85 |
| GUUAACGGUCAUAGGCCACGGAAACUAGGAGCACCAUUUCGCCGCCAGUGAAGAAAUGAACAAAGAAAAUCUGGGCCAGGCAGGCACCAAAAGAAAUAGUCUUGCGCUCAACCAGAAAGUCUGCAAUCAUUUUAAGGGUA | 0.86 |
| GUUAACGGUCAUAGGCCACGGAAACUAGGAGCACCAUUUCGCUGCCAGUGAAGAAAUGAACAAAGAAAAUCUGGACCAGGCGGGCAUCAAAAGAAAUAGUCUUGCGCUCAACCGGAAAGUCUGUAAUCACUUUAAGGGUA | 0.02 |
| GUUAACGGUCAUAGGCCACGGAAACUAGGAGCACCACUUCGCUGCCAGUGAAGAAAUGAACAAAGAAAAUCAGGGCCAGGCAGGCAUCAAAAGAAAUAGUCUUGCGCUCAACCAGAAAGUCUGUAAUCAUUUUAAGGGUA | 0.12 |
| GUUAACGGUCAUAGGCCACGGAAACUAGACGCACCAUUUCGCUGCCAGUGGAGAAAUGAACAAAGAAAAUCUGGGCCAGGCAGGCAUCAAAAGAAAUAGUCUUGCGCUCAACCAGAAUGUCCGUAAUCAUUUUAAGGGUA | 0.54 |
| GUUAACGGUCAUAGGCCACGGAAACUAGGAGCACCAUUUCGCUGCCAGUGAAGAAAUGAACAAAGAAAAUCUGGGCCAGGCAGGCAUCAAAAAAAAUAGUCUUGCGCUCAACCGGAAAGUCUGUAAUCAUUUUAAGGGUA | 0.55 |
| GUUAACGGUCAUAGGCCACGGAAACUAGGAGCACCAUUUCGCCGCCAGUGAAGAAAUGAACAAAGAAAAUCUGGGCCAGGCUGGCAUCAAAAGAAAUAGUCUUGCGCUCAACCAGAAAGUCUGUAAUCAUUUUAAGGGUA | 0.33 |
| GUUAACGGUCAUAGGCCACGGAAACUAGGAGCACCAUUCCGCUGCCAGCGAAGAAAUGAACAAAGAAAAUCUGGGCCAGGCAGGCAUCAAAAGAGAUAGUCUUGCGCUCAACCAGAAAGUCUGUAAUCAUUUUAAGGGUA | 1.61 |
| GUUAACGGUCAUAGGCCACGGAAACUAGGAGCACCAUUUCGCCGCCAGUGAAGAAAUGAACAAAGAAAAUCUGGGCCAGGCAGGCAUCAAAAGAAAUAGUCUUGCGCUCAACCAGAAAGUCUGUAACCAUUUUAAGGGUA | 0.06 |
| GUUAACGGUCAUAGGCCACGGAAACUAGGAGCACCAUUUCGCUGCCAGAGAAGAAACGAACAAAGAAAAUCUGGGCCAGGCAGGCAUCAAAAGAGAUAGUCUUGCGCUCAACCAGAAAGUCUGUAAUCGUCUUGAGGGUA | 1.61 |
| GUUAACGGUCAUAGGCCACGGAAACUAGGAGCACCAUUUCGCAGCCAGUGAAGAAAUGAACAAAGAAAAUCUGGGCCAGGCAGGCGUCAAAAGAAAUGGUCUUGCGCUCAACCAGAAAGUCUGUAGUCAUUUUAAGGGUA | 0.2 |
| GUUAACGGUCAUAGGCCACGGAAACUAGGAGCACCAUUUCGCUGCCAGAGAAGAAAUGAACAAAGAAAAUCUGGGCCAGGCAGGCAUCAAAGGAAAUAGUCUUGCGCUCAACCAGAAAGUCUGUAAUCAUUUUAGGGGUA | 0.37 |
| GUUAACGGUCAUAGGCCACGGAAACAAGGAGCACCAUUUCGCAGCCAGUGAAGAAAUGAACAAAGAAAAUUUGGGCCAGGCAGGCAUCAAAAGAAAUAGUCUUGCGCCCAACCAGAAAGUCUGUAAUCAUUCUAAGGGUA | 0.02 |
| GUUAACGGUCAUAGGCCACAGAAACUAGGAGCACCAUUUCGCUGCCAGUGAAGAAAUGAACAAGGAAAAUCUGGGCCAGGCAGGCAUCAAAAGAAAUAGUCUUGCGCUCAACCAGAAAGUCUGUAAUCAUUUUAAGGGUU | 0.89 |
| GUUAACGGUCAUAGGCCACGGAAACUAGGAGCACCAUUUCGCUGCCAGUGAAGAAAUGAACAAAGAAAACCUGGGCCAGGCAGGCAUCAAAAGAAAUAGUCUUGCGCCCAGCCAGAAAGUCUGUAAUCAUUUUAAGGGUA | 0.01 |
| GUUAACGGUCAUAGGCCACGGAAACUAGGAGCACCAUUUCGCUGCCAGUGAAGAAAUGAACAAAGAAAAUCCGGGCCAGGCAGGCAUCAAAAGAAAUAGUCUUGCGCUCAACCAGAAAGUCCGUAAUCAUUUUAAGGGUA | 0.18 |
| GUUAACGGUCAUAGGCCACGGAAACUAGGAGCACCAUUUCGCUGCCAGCGAAGAAAUGAACAAAGAAAAUCUGGGCCAGGCAGGCAUCAAAAGAAAUAGUCCUGCGCUCAACCAGAAAGUCUGUAAUCAUUUUAAGGGUA | 2.26 |
| GUUAACGGUCAUAGGCCACGGAAACAAGGAGCACCAUUUCGCUGCCGGUGAAGAAAUGGACGAAGAAAAUCUGGGCCAGGCAGGCAUCAAAAGAAAUAGUCUUGCGCUCAACCAGGAAGUCUGUAAUCAUUUUAAGGGUA | 0.53 |
| GUUAACGGUCAUAGGCCACGGAAACUAGGAGCACCAUUUCGCUGCCAGUGAAGAAAUGAACAAAGAAAAACUGGGCCAGGCAGGCAUCAAAAGAAAUAGUCUUGCGCUCCACCAGAAAGUCUGUAAUCAUUUUAAGAGUA | 0.29 |
| GUUAACGGUCAUAGGCCACGGAAACUAGGAGCACCAUUUCGCUGCCAGCGAAGAAGUGAACAAAGAAAAUCUGGGCCAGGCAGGCAUCAAAAGAAAUAGUCUUGCGCUCAACCAGAAAGUCUGUAAUCAUUUUAAGGGUA | 0.95 |

| Variant | self-cleavage |
| --- | --- |
| GUUAACGGUCAUAGGCCACGGAAACUAGGAGCACCAUUUCGCCGCCAGUGAAGAAAUGAACAAAGAAAAUCUGGGCCAGGCAGGCAUCAAAAGAAAUAGUCUUGCGCUCAACCAGAAGGUCUGUAAUCACUUUAAGGGUA | 0.91 |
| GUUAACGGUCAUAGGCCACGGAAACUAGGAGCACCAUUACGCUGCCAGUGAAGAAAUGAACGAAGAAAAUCUGAGCCAGGCAGGCAUCGAAAGAAAUAGUCUUGCGCUCAACCAGAGAGUCCGUAAUCAUUUUAAGGGUA | 0.06 |
| GUUAACGGUCAUAGGCCACGGAAACUAGGAGCACCAUUCCGCUGCCAGUGAAGAAAUGAACAAAGAAAAUCUGGGCCAGGCAGGCAUCAAAAGAAAUAGUCCUGCGCUCAACCAGAAAGUCUGUAAUCAUUUUAAGGGUA | 0.77 |
| GUUAACGGUCAUAGGCCACGGAAACUAGGAGCACCAUUCCGCUGCCAGUGAAGAAAUGAACAAAGAAAAUCAGGGCCAGGCAGGCAUCAAAAGAAAUAGUCUUGCGCCCAACCAGAAAGUCUGUAAUCAUUUUAAGGGUA | 0.01 |
| GUUAACGGUCAUAGGCCACGAAAACUAGGAGCACCAUUUCGCUGCCAGUGAGGAAAUGAACAAAGGAAAUCUGGGCCAGGCAGGCAUCAAAAGAAAUAGUCUUGCGCUCAACCAGAAGGUCUGUAAUCAUUUUAAGGGUA | 1.84 |
| GUUAACGGUCAUAGGCCACGGAAACUAGGAGCACCAAUUCGCUGCCAGUGAAGAAAUGAACAAAGAAAAUCUGGGCCAGGCAGGCUUCGAAAGAAAUAGUCUUGCGCUCAACCAGAAAGUCUGUAGUCAUUUUAAGGGUA | 1.16 |
| GUUAACGGUCAUAGGCCACGGAAACUAGGAGCACCAUUACGCUGCUAGUGGAGAAAUGAACAAAGAAAAUCUGGGCCAGGCUGGCAUCAAAAGAAAUAGUCUUGCGCUCAACCAGAAAGUCUGUAAUCAUCUUAAGGGUA | 0.22 |
| GUUAACGGUCAUAGGCCACGGAAACUAGGAGCACCAUUUCGCUGCCAGCGAAGAAACGAACAAAGAAAAUCUGGGCCAGGCAGGCAUCUAAAGAAAUAGUCUUGAGCUCAACCAGAAAGUCUGUAAUCAUUUUAAGGGUA | 0.01 |
| GUUAACGGUCAUAGGCCACGGAAACUAGGAGCACCAUUUCGCUGCCAGCGAAGAAAUGAACAAAGAAAAUCUGGGCCAGGCAGGCAUCAAAAGAAAUAGUCUUGCGCUCAACCAGGAAAUCUGUAAUCAUUUUAAGGGUA | 0.16 |
| GUUAACGGUCAUAGGCCACGGAAACUAGGAGCACCAUUUCGCAGCCAGUGAAGAAACGAACUAAGAAAGUCUGGACCAGGCAGGCAUCAAAAGAAAUAGCCUUGCGCUCAACCAGAAAGUCUGUAAUCAUUUUAAGGGUA | 0.2 |
| GUUAACGGUCAUAGGCCACGGAAACUAGAAGCACCAUUUCGCUGCCAGUGAAGAAAUGAACAAAGAAGAUCUGGGCCAGGCAGGCAUCAAAAGAAAUAGUCUUGCGCUCAACCAGAAAGUCUGUAAUCAUUUUAAGGGUA | 1.16 |
| GUUAACGGUCAUAGGCCACGGAAACUAGGAGCACCAUUCCGCUGCCAGUAAAGAAAUGAACAAAGAAAAUCCGGGCCAGGCAGGCAUCAAAAGAAAUAGUCUUGCGCUCAGCCAGAAAGUCUGUAAUCAUUUUAAGGGUA | 0 |
| GUUAACGGUCAUAGGCCACAGAAACUAGGAGCACCAUUUCGCUGCCAGUGAAGAAAUGAACAAAGAAAAUCUAGGCCAGGCAGGCAUCAAAAGAAAUAGUCUUGCGCUCAACCAGAAAGUCUGUAAUCAUUUUAAGGGUA | 0.13 |
| GUUAACGGUCAUAGGCCACGGAAACUAGGAGCACCAUUUCGCAGCCAGUGAAGAAAGGAACAAAGAAAAUCUGGGCCAGGCAGGCAUCAAAAGAAAUAGUCUUGCGCUCAACCAGGAAGUCUGUAACCAUUUUAAGGGUA | 0.37 |
| GUUAACGGUCAUAGGCCACGUAAACUAGGAGCACCAUUUCGCUGCCAGUGAAGAAAUGAACAAAGAAAAUCUGGGCCAGGCAGGCAUCAAAAGAAGUAGUCUUGCGCUCAACCAGAAAGCCUGUAAUCAUUUUAAGGGUA | 1.01 |
| GUUAACGGUCAUAGGCCACGGAAACUAGGAGCACCAUCCCGCUGCCAGUGAAGAAAUGAACAAAGAAAAUCUGGGCCGGGCAGGCAUCAAAAGAAAUAGUCCUGCGCUCAACCAGAAAGUCUGUAAUCAUUUUAAGGGUA | 0.48 |
| GUUAACGGUCAUAGGCCACGGAAACUAGGAGCACCAUUUCGCUGCCAGUGAAGAAAUGAACAAAGAAAAUCCGGGCCAGGCAGGCAUCAAAAGAAAUAGUCUUGCGCUCAACCAGAAAGUCUGUAAUCAUUCUAAGGGUA | 0.09 |
| GUUAACGGUCAUAGGCCACGGAAACUAGGAGCACCAUUUCGCUGCCAGUGAAGAAACGAACAAAGAAAAUCUGGGCCAGGCAGGCAUCAAAAGAAAUAGUCUUGCGCUCAACCAGAAAGUCUGAAAUCAUUUCAAGGGUA | 0.46 |
| GUUAACGGUCAUAGGCCACGGAAACUAGGAGCACCAUUUCGCUGCCAGUGAAGAAACGAACAAAGAAAAUCUGGGCCAGGCAGGCAUCAAAAGAAAUAGUCCUGCGCUCAACCAGAAAGUCUGUAAUCAUUUUAAGGGUA | 1.87 |
| GUUAACGGUCAUAGGCCACGGAAACUAGGAGCACCAUUACGCUGCCAGUGAAGAAAUGAACAAAGAAAAUCUGGGCCAGGCAGGCAUCAAAAGAAAUAGUCUUGCGCUCAACCAGCAAGUCUGUAAUCAUUUUAAGGGUA | 0.16 |
